Hit rate of the full screen: of about 46,000 compounds, about 60 (0.1%) were called active. Roughly 3% stayed inconclusive and do not appear here. The call rests on the fitted dose curve; in most records, active means well fitted inhibition curve with a large enough effect; inconclusive means small, poorly fitted or top-dose-only effect; inactive means no such curve, though single readings can be large or run the other way. The list shows a part of the results.

These results are taken from PubChem BioAssay AID1963576 (National Center for Advancing Translational Sciences (NCATS), 2024).

The nature of this assay: Primary qHTS assay for Inhibitors of ovarian cancer metastasis using an organotypic tumor microenvironment (TME) model. Further: nearly all actives have a fitted effect of over 65% in size.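 On activity change, negative = inhibition: plate controls were DMSO wells for no effect and tomatine positive control wells for full effect.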 As to conditions: SKOV3ip1-GFP adhesion/invasion on 3D omental model, fluorescence; series mostly up to 45.8 µM; activity change, negative = inhibition: at the top concentration. Put shortly:
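Adhesion/invasion was scored as fixed GFP-labeled SKOV3ip1 cell counts (488/509 nm), normalized to DMSO and tomatine controls. Cancer cells in serum-free medium, with four compound doses (0.36-46 umol/L), sat 2 hr at RT then 16 hr at 37 C on a 48 hr fibroblast/mesothelial/ECM culture.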
(In general: qHTS replaces the single test concentration by a dilution series.)
Turning to `CCOc1cc(-c2nc3c(c(CC)nn3-c3ccccc3)c3cc(OC)c(OC)cc23)ccc1O`, the “activity change, negative = inhibition” value is inactive: 0.68%. On to `COc1ccc2c(c1)c(CC(=O)O)c(C)n2C(=O)c1ccc(Cl)cc1`, for which the “activity change, negative = inhibition” value was inactive: 8.42%. On the same count and under the same terms, the same measure for `COc1cccc(-c2nc(CS(=O)(=O)CC(=O)NCc3ccc(C)cc3)c(C)o2)c1`: inactive: -28.7%. Consider `Cc1ccc(-c2nnc(SCc3ccccc3C#N)o2)cc1`, for which the compound was called inactive. Still for that read-out and setting: the same measure for `CCOC(=O)C(CC)n1nc(C)n2c(cc3occc32)c1=O` (stereo not drawn): “inactive”. As for `Cc1cccc(OCC(=O)OCc2cc(=O)n3nc(C4CCCCC4)sc3n2)c1`, the “activity change, negative = inhibition” value is inactive: -0.319%. Regarding `Nc1nc2ccc(OC(F)(F)F)cc2s1`, the “activity change, negative = inhibition” value was inactive: -11%. In the case of `Cc1ccc(S(=O)(=O)NCC(c2ccc(N(C)C)cc2)N2CCOCC2)cc1` (stereo not drawn), the “activity change, negative = inhibition” value was inactive: -1.84%.

`O=C(NC1CCCCCC1)C1CCN(C(=O)N2CCOc3ccccc32)CC1`: the “activity change, negative = inhibition” value is inactive: 28.7%.

Take `Cc1ccc(CNC(=O)CCc2c(C)nn(-c3ccc(N4CCCCC4)nn3)c2C)cc1`: the “activity change, negative = inhibition” value is inactive: -6.25%. For the compound `Cc1ccc(-c2nc3ccccn3c2Nc2ccc3c(c2)OCO3)cc1`, the “activity change, negative = inhibition” value was inactive: 2.77%. Turning to `Cc1csc2nc(-c3cccc(NC(=O)c4ccccc4Cl)c3)cn12`, the outcome was inactive. Turning to `COc1ccc(C(=O)c2cn(Cc3ccc(F)cc3)c3ccc(C)cc3c2=O)cc1`, the “activity change, negative = inhibition” value was inactive: -7.28%. As for `Cc1ccc(NC(=O)c2cc(S(=O)(=O)N3CCCC(C)C3)cn2C)c(Br)c1` (stereo not drawn), the compound was called inactive. With `COc1cc(/C=C(\C#N)c2nc3ccccc3n2C)cc(OC)c1OC`, the “activity change, negative = inhibition” value is inactive: 1.39%. Turning to `Cc1nc(C)c(-c2ccc(SCC(=O)Nc3ccc(F)c(F)c3)nn2)s1`, the “activity change, negative = inhibition” value is inactive: -2.74%. As to `O=c1c2cc3c(cc2nc2sc(Nc4ccc(F)c(Cl)c4)nn12)OCO3`, the “activity change, negative = inhibition” value is inactive: 4.6%. As for `COc1cc(OC)c(N(C)C(=O)Cn2ncc3c([nH]c4ccccc43)c2=O)cc1Cl`, the “activity change, negative = inhibition” value was inactive: -3.7%. As to `CN(Cc1ccccc1)C(=O)C1CCN(S(=O)(=O)Cc2ccccc2)CC1`, the “activity change, negative = inhibition” value is inactive: 1.85%. In the case of `CCN1CCN(c2oc(/C=C/c3ccccc3OC)nc2C#N)CC1`, the “activity change, negative = inhibition” value was inactive: -8.49%. On to `Cn1c(=O)c2c(-c3cccc(Br)c3)n(CCO)cc2n(C)c1=O`, for which the “activity change, negative = inhibition” value was inactive: 1.71%. With `CCOc1ccc(CNC(=O)c2cc3ccccn3n2)cc1OC`, the “activity change, negative = inhibition” value was inactive: -9.84%. As to `CCc1ccc(CN(Cc2cn[nH]c2-c2ccc(OC)cc2)C(=O)Nc2ccc(C)c(F)c2)cc1`, the “activity change, negative = inhibition” value is inactive: -14.8%. On the same count and under the same terms, in the case of `CC1CCN(CCCNC(=O)c2cc(Sc3ccc(F)cc3)nc3ccccc23)CC1` it was inactive: -4.11%; in that of `COc1cccc(NS(=O)(=O)c2ccc3[nH]cc(C(=O)N4CCCCCC4)c(=O)c3c2)c1`, inactive: 2.83%. As to `CCOC(=O)c1c(-c2ccc(C)cc2)csc1NC(=O)c1nc(SCC)ncc1Cl`, the call was inactive. `Cc1ccc(-n2c(=O)c3ccc(C(=O)NCc4ccccc4Cl)cc3n(Cc3ccccc3F)c2=O)cc1`: the “activity change, negative = inhibition” value was inactive: -8.72%. `CSc1nnc(NC(=O)Cc2coc3cc(C)ccc23)s1`: the “activity change, negative = inhibition” value was inactive: -8.4%.

For `Cc1ccc(NC(=O)c2oc3ccccc3c2NC(=O)c2ccccc2C)cc1`, the “activity change, negative = inhibition” value was inactive: 66.3%.

For the compound `O=C(NC1CC(=O)N(c2cccc(F)c2)C1)C1CC1` (stereo not drawn), the outcome was inactive. As to `COc1ccc(Cn2c(=O)c3cccnc3n(Cc3cccc(OC)c3)c2=O)cc1`, the “activity change, negative = inhibition” value is inactive: -15.7%. Regarding `CCOC(=O)c1c(-c2ccccc2)oc2ccc(NS(=O)(=O)c3ccc(C)cc3C)cc12`, the “activity change, negative = inhibition” value was inactive: 19%.

As to `Nc1cccc(-c2cn3ccsc3n2)c1`, the “activity change, negative = inhibition” value was inactive: -6.21%.
